Test results reported in the RNAGym collection of RNA variant scans (doi:10.1073/pnas.2313332121).
Variants at the floor of the assay are shown more often than the library holds them.

B1: TPR 5TU (parent)
chain: GGAUCUUCUCGAUCUAACAAAAAAGACAAAUCUGCCACAAAGCUUGAGAGCAUCUUCGGAUGCAGAGGCGGCAGCCUUCGGUGGCGCGAUAGCGCCAACGUUCUCAACUAUGACACGCAAAACGCGUGCUCCGUUGAAUGGAGUUUAUCAUG

Variants of: B1
Assay: polymerase ribozyme fitness, log enrichment relative to wild type (log ratio); higher = more active; in vitro selection for triplet polymerase activity
Method in brief: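 Libraries of mutants in each subunit of a heterodimeric triplet polymerase ribozyme were generated by PCR and transcribed. In triplicate, each went through one in vitro selection round: annealing with biotinylated primer, partner subunit and triplets; frozen incubation at −7 °C; gel excision of extended constructs; streptavidin-bead capture; RT-PCR. Fitness, taken from Illumina sequencing of input and output libraries, is the logarithm of a genotype's enrichment over wild-type enrichment, averaged across replicates with inverse-variance weights. The logarithm is base 2, and genotypes needed ≥10 input reads and ≥1 read per output to be kept.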

Variant | polymerase ribozyme fitness (log ratio)
GGAUCUUCUCGAUCUAACAAAAGAGACAAAUCUGCCACAAAGCUUGAGAGCAUCUUCGGAUGCAGAGGCGGCAGCCUUCGGUGGCGCGAAAGUGCCAACGUUCUUAACUAUGACACGCAAAACGUGUGCUCCGUUGAAUGGAGUUUAUCAUG [A23G U90A C93U C105U C125U] | ≤ -4.2
GGAUCUUCUCGAUCUAACAAAAGAGACAAAUCUGCCACAAAGCUUGAGAGCAUCUUCGGAUGCAGAGGCGGCAGCCUUCGGUGGCACGAUAGCGCCAACAUUCUCAACUAUGACACGCAAAACGCGUGCUCCGUUGAAUGGAGUUUAUCAUG [A23G G86A G100A] | ≤ -4.2
GGAUCUUCUCGAUCUAACAAAAGAGACAAAUCUGCCACAAAGCUUGAGAGCAUCUUCGGAUGCAGAGGCGGCAGCCUUCGGUGGCGCCAUAGCGCCAACGUUCUCAACUAUGACACGCAAAACGCGUGCUCCGUUGAAUGGAGUUUAUCAUG [A23G G88C] | ≤ -4.2
GGAUCUUCUCGAUCUAACAAAAGAAACAAAUCUGCCACAAAGCUUGAGAGCAUCUUCGGAUGCAGAGGCGGCAGCCUUCGGUGGGGCGAUAGCGCCAACGUUCCCAACUAUGACACGCAAAACGCGUGCUCAGAUGAAUGGAGUUUAUCAUG [A23G G25A C85G U104C C132A U134A] | ≤ -4.2
GGAUCUUCUCGAUCUAACAAAAGAGACAAAUCUGCCACAAAGCUUGAGAGCAUCUUCGGAUGCAGAGGCGGCAGCCUUCGGUGUCGCGAUAGCGCCAACGUUCUCAACUAUGACACGCAAAACGCGUGCUCCGUUGAAUGGAGUUUAUCAUG [A23G G84U] | -3.88
GGAUCUUCUCGAUCUAACAAAAGAGACAAAUCUGCCACAAAGCUUGAGAGCAUCUUCGGAUGCAGAGGCGGCAGCCUUCGGUGACGCGAUAGCGCCAACGUUCUCAACUAUGACACGCAAAACGCGUGGUCCGUUGAAUGGAGUUUAUGAUG [A23G G84A C129G C149G] | ≤ -4.2
GGAUCUUCUCGAUCUAACAAAAGAGACAAAUCUGCCACAAAGCUUGAGAGCAUCUUCGGAUGCAGAGGCGGCAGCCUUCCAUGGCGCGAUAGCGCCAACGUUCUCAACUAUGACACGCAAAACGCGUGCUCCGUUGAAUGGAGUUUAUCAUG [A23G G80C G81A] | ≤ -4.2
GGAUCUUCUCGAUCUAACAAAAGAGACAAAACUGCCACAAAGCAUGAGAGCAUCUUCCGAUGCAGAGGCGGCAGCCUUCGGUGGCGCGAUAGCGCUAACGUUCUCAACUAUGACACGCAAAACGCGUGCUCCGUUGAAUGGAGUUUAUCAUG [A23G U31A U44A G58C C96U] | ≤ -4.2
GGAUCUUCUCGAUCUAACAAAAGACACAAAUCUGCCACACAGCUUGAGAGCAUCUUCAGAAGCAGAGGCGGCAGCCUUCCGUGGCGCCAUAGCGCCAACGUUCUCAACUAUGACACGCAAAACGCGUGCUCCGUUGAAUGGAGUUUAUCAUG [A23G G25C A40C G58A U61A G80C G88C] | ≤ -4.2
GGAUCUUCUCGAUCUAACAAAAGAGACAAAUCUGCCACAAAGCUUGAGAGCAUCUUCGGAUGCAGAGGCGGCAGCCUUCGGUGGGGCGAUAGCGCGAACGUUCUCAACUAUGACACGCAAAACGCGUGCUCCGUUGAAUGGAGUUUAUCAUG [A23G C85G C96G] | ≤ -4.2
GGAUCUUCUCGAUCUAACAAAAGAUACAAAUCUGCCACAAAGCUUCAGAGCAACUUCGGAUGCAGAGGCGGCAGACUUCGGUGCCGCGAUAGCGCAAACGUUCUCAACUAUGACACGCAAAACGCGUGCUCCGUUGAAUGAAGGUUAUCAUG [A23G G25U G46C U53A C75A G84C C96A G141A U144G] | ≤ -4.2
GGAUCUUCUCGAUCUAACAAAAGAGACAAAUCUGCCACAAAGCUUGAGACCAUCUUCGGAUGCAGAGGCGGCAGCCUUCGGUGGCCCGGUAUCGCCUACGUUCUCAACUAUGACACGCAAAACGCGUGCUCCGUUGAAUGCAGUUUAUCAUG [A23G G50C G86C A89G G92U A97U G141C] | ≤ -4.2
GGAUCUUCUCGAUCUAACAAAAGAGACAAAUCUGCCACAAACCUUAAGAGCAUCUUCGGAAGCAGACGCGGCAGCCUUCGGUGGUGCGAUAGCGCCAUCGUUCUCAACUAUGACACGCAAAACGCGUGCUCCGUUGAAUGGAGUUUAACAUG [A23G G42C G46A U61A G67C C85U A98U U148A] | ≤ -4.2
GGAUCUUCUCGAUCUAACAAAAGAGACAAAUCUGCCACAAAGCUUGAGAGCAUCUUCGGAUGCAUAGGCGGCAGCCUUCGGUGGCGCGUUAUCGCUAACGUUCUCAACUAUGACACGCAAAACGCGUGCUCCGUUGAAUGGAGUUUAUCAUG [A23G G65U A89U G92U C96U] | ≤ -4.2
GGAUCUUCUCGAUCUAACAAAAGAGACAAAUCUGCCACAAAGCUUGAGAGCAUCUUCGGAUGCAGAGGCGGCAGCCUUCGGUGGCUCGAUAGUGCCAACGUUCUCAACUAUGACACGCAAAACGCGUGCUCCGUUGAAUGGAGUUUAUCUUG [A23G G86U C93U A150U] | -3.88
GGAUCUUCUCGAUCUAACAAAAGAGACAAAUCUGCCACAAAGCUUGAGAGCAUCAUCGGAUGCAGAGGCGGCAACCUUCGGUGGCGCGAUAGCGCCAACGUUCUCAACUUUGACACGCAAAACGCGUGCUCCGUUGACUGGAGUUUAUCAUG [A23G U55A G74A A110U A138C] | ≤ -4.2
GGAUCUUCUCGAUCUAACAAAAGAGACAAAUCUGCCACAAAGCUUGAAAGCAUCUUCGGAUGCAGAGGCGGCAGCCUUCGGUGGCGCGAUAGCGCCAACGAUCUCAACUAUGACACGCAAAACGCGUGCUCCGUUGAAUGGAGUUUAUCAUG [A23G G48A U101A] | ≤ -4.2
GGAUCUUCUCGAUCUAACAAAAGACACAAAUCUGCCACAAAGCUUGAGAGCAUCUUCGGAUGCAGAGGCGGCAGGCUUCGGUGGCGCGAUAGCGCCAACGUUCUCAACUAUGACACGCAAAACGCGUGCUCCGUUGAAUGGAGUUUGUCAUU [A23G G25C C75G A147G G152U] | ≤ -4.2
GGAUCUUCUCGAUCUAACAAAAGAGACAAAUCUGCCACAAAGCUUGAGAGCAUCUUCGGAUGCAGAGGCGGCAGCCUUCGGUGGCGCGAGAACGCCAACGUUCUCAACUAUGACACGCAAAACGCGCGCUCCGUUGAAUUGAGUUUAUCAUG [A23G U90G G92A U127C G140U] | ≤ -4.2
